According to PubChem BioAssay (Tox21):
Several values for one entry are separate records, joined by “and”; a condition that tells them apart may be missing. Equal values may be shown once. The inconclusive results got no clear call from the source; some entries with a clear call stand among them for comparison. A potency beside an inconclusive call is a rough fit, not a confirmed value. Activity calls are given as the source filed them. Calls come from the whole dose curve; as a rule, active = well fitted cell-killing curve with a large enough effect in the repeat runs; inconclusive = weak or mixed curves, or effect the other way; inactive = flat fitted curve, though single readings scatter.

Experiment: qHTS RealTime-Glo MT Cell Viability Assay in HepG2 cells - 0 hour (AID 1224889); note: nearly all actives have a fitted effect of over 50% in size
Settings: RealTime-Glo luminescence; series mostly up to 76.8 µM; activity change, negative = cytotoxicity: at the top concentration
Excerpt: U.S. Tox21 Program National Center for Advancing Translational Sciences [NCATS] NIH Chemical Genomics Center [NCGC] U.S. Environmental Protection Agency [EPA] National Institutes of Environmental Health Sciences [NIEHS] National Toxicology Program [NTP] U.S. Food and Drug Administration [FDA] Tox21 Assay Overview: Measure of cell viability is critical in the cell-base assay. Analysis of cell viability is necessary for the characterization of cell responses to cytotoxic drugs and environmental stress. A RealTime-Glo MT Cell Viability Assay to monitor cell viability in real time of continues cell culture during 40 hours of compound treatment was used to screen Tox21 10K library compounds in HepG2 cells. The RealTime-Glo MT Cell Viability Assay is a nonlytic, homogeneous, bioluminescent method to measure cell viability in real time using a simple, plate-based method. The assay involves adding NanoLuc luciferase and a cell-permeant prosubstrate to cells in culture. Viable cells reduce the proprietary prosubstrate to generate a substrate for NanoLuc luciferase. This substrate diffuses from cells into the surrounding culture medium, where it is rapidly used by the NanoLuc Enzyme to produce a luminescent signal. The signal correlates with the number of viable cells, making the assay well suited for cytotoxicity studies.
Tox21 Assay Protocol Summary: The mixture of HepG2 cell suspension and reagents were dispensed at 600cells/6 ul/well in 1536-well tissue culture treated black solid bottom plates using a Multidrop dispenser. After the assay plates were incubated at a 37 C/5% CO2 incubator for 5 hours, 23 nL of compounds dissolved in DMSO, positive and negative controls was transferred to the assay plate by a pintool work station. The plates were incubated at 37 C for 40 hours. The luminescence intensity were measured at 0h, 8h, 16h, 24h, 32h and 40h time points using ViewLux plate reader during compound treatment.
% is set by controls: 0 for no effect and ±100 for the full control effect; potency is the fitted concentration of half-maximal effect; tags give direction and shape of the fitted curve.

| Compound | Potency | activity change, negative = cytotoxicity |
| --- | --- | --- |
| NC(=O)NO | inactive | – |
| CC(=O)Nc1ccc(S(N)(=O)=O)cc1 | – | inactive: 1.73% |
| CN(C)C | inactive | – |
| CCC[C@@H]1C[C@@H](C(=O)N[C@@H]([C@H]2O[C@H](SC)[C@H](O)[C@@H](O)[C@H]2O)[C@@H](C)O)N(C)C1 | – | inactive: 6.9% [at 35.3 µM] |
| CCCC[N+](C)(CCCC)CCCC | – | inactive: -2.11% |
| c1cc(CCCc2ccncc2)ccn1 | – | inactive: 7.97% |
| O=C(O)c1ccccc1S | – | inactive: 8.04% [at 35.3 µM] |
| CO[C@]12C[C@@H](COC(=O)c3cncc(Br)c3)CN(C)[C@@H]1Cc1cn(C)c3cccc2c13 | inconclusive: 19 µM [cytotoxic, partial curve] | – |
| CCC(C)C(=O)OC (stereo not given) | inconclusive: 49 µM [cytotoxic, partial curve, poor fit] | – |
| CCCC[C@H]1CN(CC2CCOCC2)C(=O)OC12CCN(C1(C)CCN(C(=O)c3c(C)ncnc3C)CC1)CC2 | inconclusive: 38.5 µM [cytotoxic, partial curve, poor fit] | – |
| N[C@@H](Cc1cc(I)c(Oc2ccc(O)c(I)c2)c(I)c1)C(=O)O | inconclusive: 32.2 µM [cytotoxic, partial curve] | – |
| CCOc1cc(N)c(Cl)cc1C(=O)NCC1CN(Cc2ccc(F)cc2)CCO1 (stereo not given) | inconclusive: 21.3 µM [cytotoxic, partial curve, poor fit] | – |
| c1ccc2c(c1)CCCC2C1=NCCN1 (stereo not given) | – | inactive: -0.127% [at 35.3 µM] |
| CCCC(=O)OCCC(C)CCC=C(C)C (stereo not given) | inconclusive: 49 µM [cytotoxic, single point] | – |
| O=C(c1ccccc1O)c1ccccc1O | inconclusive: 61 µM [cytotoxic, single point] | – |
| C[C@H]1C[C@H]2[C@@H]3CCC4=CC(=O)C=C[C@]4(C)[C@@]3(F)[C@@H](O)C[C@]2(C)[C@@]1(O)C(=O)COP(=O)(O)O | inconclusive: 50 µM [cytotoxic, single point] | – |
| COc1cccc(OC)c1 | – | inactive: 0.654% |
| CC(=O)OCC(=O)[C@@]1(O)CC[C@H]2[C@@H]3CCC4=CC(=O)C=C[C@]4(C)[C@H]3[C@@H](O)C[C@@]21C | active: 10.7 µM | – |
| CCCCCC(C)N (stereo not given) | – | inactive: 1.28% [at 35.3 µM] |
| O=S(=O)(O)c1cc(O)c2ccc(Nc3ccccc3)cc2c1 | inconclusive: 34.7 µM [cytotoxic, partial curve] | – |

| Compound | Potency | activity change, negative = cytotoxicity |
| --- | --- | --- |
| C/C=C1\C(=O)C[C@H]2[C@@H]3CCC4=CC(=O)CC[C@]4(C)[C@H]3CC[C@]12C | active: 7.61 µM | – |
| OCCCS | – | inactive: 13.9% |
| CC(=O)[C@@]1(O)CC[C@H]2[C@@H]3C[C@H](C)C4=CC(=O)C=C[C@]4(C)[C@@]3(F)[C@@H](O)C[C@@]21C | active: 347 nM and active: 1.34 µM | – |
| CCCCCCCCCCCCCC=O | – | inactive: 15.5% [at 6.97 µM] |
| CCC1(C)CC(=O)NC1=O (stereo not given) | – | inactive: -1.57% [at 35.3 µM] |
| O=C1OC(=O)c2cc(Oc3ccc4c(c3)C(=O)OC4=O)ccc21 | – | inactive: -9.87% |
| CC/C=C\CCCCCCCCCCOC(C)=O | inconclusive: 21.9 µM [cytotoxic, single point] | – |
| CC(=O)OCC(=O)[C@@]1(O)CCC2C3CCC4=CC(=O)CC[C@]4(C)C3[C@@H](O)C[C@@]21C (stereo not given in full) | active: 2.39 µM | – |
| CCCC(=O)O[C@]1(C(=O)CO)CC[C@H]2[C@@H]3CCC4=CC(=O)CC[C@]4(C)[C@H]3[C@@H](O)C[C@@]21C | active: 2.13 µM | – |
| O=c1cc[nH]c(=S)[nH]1 | inactive | – |
| CCCCC(C)C(=O)O (stereo not given) | inconclusive: 21.9 µM [rising, single point] | – |
| Clc1cc(Cl)c(-c2c(Cl)c(Cl)cc(Cl)c2Cl)cc1Cl | inconclusive: 16.9 µM [cytotoxic, partial curve, poor fit] | – |
| C[C@H]1C[C@H]2[C@@H]3CCC4=CC(=O)C=C[C@]4(C)[C@@]3(F)[C@@H](O)C[C@]2(C)[C@@]1(O)C(=O)CO | active: 7.76 µM and inconclusive: 26.8 µM [cytotoxic, partial curve, poor fit] | – |
| [O-][n+]1ccc(Cl)cc1 | – | inactive: 1.38% |
| CC1(C)C2=CCCC(C)(C)[C@]23CC[C@H]1C3 | active: 34.7 µM | – |
| CCCCCNCCCCC | inactive | – |
| N[C@H](C(=O)O)[C@@H](O)c1ccc(O)c(O)c1 | – | inactive: 1.37% [at 35.3 µM] |
| O=C(O)c1[nH]n(-c2ccc(S(=O)(=O)O)cc2)c(=O)c1N=Nc1ccc(S(=O)(=O)O)cc1 | inconclusive: 49.1 µM [cytotoxic, partial curve] and inconclusive: 40.8 µM [cytotoxic, partial curve] | – |
| CCCCCCCCCCl | – | inactive: 6% |
| CCOC(=O)C(=O)OCC | – | inactive: -0.249% |
